In the supplement of paper PMC9174493 one finds NF-kB reporter data, which are given here for 40 molecules.

Some of the results follow. Single values of this set are uncertain. Values with irradiation are relative to irradiated vehicle.
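Also: viability correction based on the alamar blue assay, with concentrations leaving 10% survival or less dropped.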

This assay has as its system A549-Dual. Kind of assay: NF-kB reporter (SEAP) activity, viability-corrected, relative to vehicle (fold change vs vehicle); higher = more activation of STING-IRF / NF-kB immune response reporter. The note with it: 10 µM; irradiation: 8 Gy/4 fr.
Molecule `CC(NC(=NC#N)Nc1ccncc1)C(C)(C)C.O` (stereo not given) [Pinacidil] had an NF-kB reporter of 1.01.

Turning to `CN(C)N(C)C(=O)C1(Cc2ccccc2)CCCN(C(=O)C(Cc2c[nH]c3ccccc23)NC(=O)C(C)(C)N)C1` (stereo not given) [Anamorelin], the NF-kB reporter worked out at 0.977.

`NNC(=O)c1ccncc1.Nc1ccc(C(=O)O)c(O)c1` [Pasiniazid] showed an NF-kB reporter of 2.27.

For the molecule `Cc1nc(C(=O)NCC(=O)O)c(O)c2ccc(Oc3ccccc3)cc12` [Roxadustat (FG-4592)], the NF-kB reporter amounted to 0.667.

Molecule `COc1ccccc1O` [Guaiacol] registered an NF-kB reporter of 1.02.

As to `O=C([O-])CCC(=O)OCC(NC(=O)C(Cl)Cl)C(O)c1ccc([N+](=O)[O-])cc1.[Na+]` (stereo not given) [Chloramphenicol sodium succinate], the NF-kB reporter amounted to 0.726.

Take `CCCCC(CC)CN1CN(CC(CC)CCCC)CC(C)(N)C1` (stereo not given) [Hexetidine]: the NF-kB reporter worked out at 1.02.

`CC(C)=CCC/C(C)=C/CC/C(C)=C/CC/C=C(\C)CC/C=C(\C)CCC=C(C)C` [Squalene] returned an NF-kB reporter of 0.94.

Take `Cl.NCCC[C@H](N)C(=O)O` [L-Ornithine]: the NF-kB reporter was found to be 0.893.

Molecule `CNCc1cc(-c2ccccc2F)n(S(=O)(=O)c2cccnc2)c1.O=C(O)/C=C/C(=O)O` [Vonoprazan Fumarate (TAK-438)] showed an NF-kB reporter of 0.987.

In turn, `Cc1cccc(C)c1OCC(=O)NC(Cc1ccccc1)C(O)CC(Cc1ccccc1)NC(=O)C(C(C)C)N1CCCNC1=O` (stereo not given) [Lopinavir] gave an NF-kB reporter of 0.617.

Consider `C=CC1C(OC2OC(CO)C(O)C(O)C2O)OC=C2C(=O)OCCC21O` (stereo not given) [Swertiamarin], for which the NF-kB reporter is 1.02.

As to `CC(C)=CCCC(C)CC=O` (stereo not given) [Citronellal], the NF-kB reporter worked out at 1.07.

Molecule `COc1ccccc1Oc1c(NS(=O)(=O)c2ccc(C(C)(C)C)cc2)nc(-c2ncccn2)nc1OCCO.O` [Bosentan Hydrate] displayed an NF-kB reporter of 0.796.

The molecule `O=C(O)c1ccc(C(=O)O)cc1` [Terephthalic acid] came in with an NF-kB reporter of 0.751.

For the molecule `Cc1ccc(S(=O)(=O)NC(=O)NN2CC3CCCC3C2)cc1` (stereo not given) [Gliclazide], the NF-kB reporter amounted to 0.773.

For `OCc1cc(C(O)CNCCCCCCOCCCCc2ccccc2)ccc1O` (stereo not given) [Salmeterol], the NF-kB reporter was 0.616.

Molecule `Cc1cc(O)c2c(c1)C(=O)c1cc(O)cc(O)c1C2=O` [Emodin] gave an NF-kB reporter of 0.546.

`CN(C)c1cc(NC(=O)CNC(C)(C)C)c(O)c2c1CC1CC3C(N(C)C)C(O)=C(C(N)=O)C(=O)C3(O)C(O)=C1C2=O` (stereo not given) [Tigecycline] yielded an NF-kB reporter of 0.6.

In turn, `O=C(Nc1ccc(Cl)cc1)Nc1ccc(Cl)c(Cl)c1` [Triclocarban] displayed an NF-kB reporter of 0.877.

Turning to `CC1=NN(c2ccc(C)c(C)c2)C(=O)/C1=N\Nc1cccc(-c2cccc(C(=O)O)c2)c1O` [Eltrombopag], the NF-kB reporter came out at 1.69.

With `Cc1cc(C2CCCCC2)n(O)c(=O)c1` [Ciclopirox], the NF-kB reporter is 0.562.

For `CN(C)CCCN1c2ccccc2Sc2ccc(Cl)cc21.Cl` [Chlorpromazine HCl], the NF-kB reporter turned out to be 1.09.

The molecule `CCc1cc2c(cc1CC)CC(NCC(O)c1ccc(O)c3[nH]c(=O)ccc13)C2.O=C(O)/C=C\C(=O)O` (stereo not given) [Indacaterol Maleate] came in with an NF-kB reporter of 0.647.

Consider `CCCOC(=O)c1ccc(O)cc1` [Propylparaben], for which the NF-kB reporter was determined as 0.701.

Molecule `CC(C)(Oc1ccc(C(=O)c2ccc(Cl)cc2)cc1)C(=O)[O-].C[N+](C)(C)CCO` [Choline Fenofibrate] displayed an NF-kB reporter of 0.667.

Regarding `NS(=O)(=O)c1cc(C(=O)O)c(NCc2ccco2)cc1Cl` [Furosemide], the NF-kB reporter was 0.806.

The molecule `CC(C)(C)C1NC(=O)OC2CCCC2OC/C=C/C(F)(F)c2nc3ccccc3nc2OC2CC(C(=O)NC3(C(=O)NS(=O)(=O)C4(C)CC4)CC3C(F)F)N(C2)C1=O` (stereo not given) [Glecaprevir] showed an NF-kB reporter of 0.777.

Take `CC(=O)O.NCc1ccc(S(N)(=O)=O)cc1` [Mafenide Acetate]: the NF-kB reporter was 0.836.

With `CC(C)NCC(O)COc1ccc(CCOCC2CC2)cc1.Cl` (stereo not given) [Levobetaxolol HCl], the NF-kB reporter was 0.782.

Turning to `CC(=O)O.N=C(N)NCCCC(NC(=O)C1CCCN1C(=O)C1CSSCCC(=O)NC(Cc2ccc(O)cc2)C(=O)NC(Cc2ccccc2)C(=O)NC(CCC(N)=O)C(=O)NC(CC(N)=O)C(=O)N1)C(=O)NCC(N)=O` (stereo not given) [Desmopressin Acetate], the NF-kB reporter worked out at 0.905.

Regarding `CCn1cc(C(=O)O)c(=O)c2cnc(N3CCCC3)nc21` [Piromidic Acid], the NF-kB reporter came out at 0.785.

Molecule `CC(C)(C)NCC(O)COc1nsnc1N1CCOCC1.O=C(O)/C=C\C(=O)O` (stereo not given) [Timolol Maleate] gave an NF-kB reporter of 0.669.

`C[N+](C)(C)CCO.Cn1c(=O)c2[n-]cnc2n(C)c1=O` [Oxtriphylline] gave an NF-kB reporter of 0.749.

`CCC1OC(=O)C(C)C(OC2CC(C)(OC)C(O)C(C)O2)C(C)C(OC2OC(C)CC(N(C)C)C2O)C(C)(O)CC(C)CN(C)C(C)C(O)C1(C)O` (stereo not given) [Azithromycin] displayed an NF-kB reporter of 0.626.

Molecule `O=Cc1ccc(CO)o1` [5-Hydroxymethylfurfural] displayed an NF-kB reporter of 0.968.

The molecule `CC(C)C(NC(=O)C(CC(=O)O)NC(=O)C(CCCCN)NC(=O)C(N)CCCNC(=N)N)C(=O)NC(Cc1ccc(O)cc1)C(=O)O` (stereo not given) [Thymopentin] showed an NF-kB reporter of 0.909.

`CC=Cc1ccc(OC)cc1` (stereo in doubt) [cis-Anethole] showed an NF-kB reporter of 1.14.

In turn, `CCN1CC(CCN2CCOCC2)C(c2ccccc2)(c2ccccc2)C1=O.Cl.O` (stereo not given) [Doxapram HCl] came in with an NF-kB reporter of 0.642.

The molecule `NC(=O)c1cn(Cc2c(F)cccc2F)nn1` [Rufinamide] registered an NF-kB reporter of 0.634.
